# Measured values taken from PMC5836133.
# The other results are listed elsewhere or left out. At the low end of the ranking the order means little.
# System: T1, GST-NbGlk1(82-244)
# T1 sequence: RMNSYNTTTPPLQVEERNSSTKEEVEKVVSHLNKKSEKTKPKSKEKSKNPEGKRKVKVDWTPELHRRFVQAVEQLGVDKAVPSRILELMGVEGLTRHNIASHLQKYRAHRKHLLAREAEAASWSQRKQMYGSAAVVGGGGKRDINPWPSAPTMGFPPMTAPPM
# Experiment: protein-binding microarray;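 also: rank-based score ranging −0.5 to +0.5 with E above 0.45 taken as significant binding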
# Conditions: NbGlk1 is a Golden2-like transcription factor of Nicotiana benthamiana; high values mean tight binding; most listed sequences are background and not binding sites; double strand, one strand shown
row,Sequence,binding signal [E-score]
1,ATTCCCTG,0.323
2,ATGTGGTG,0.0183
3,ATAAAGGG,0.044
4,ACGGAGGG,-0.258
5,ATCAAGGG,-0.0888
6,AGTGAGAG,0.0562
7,ACAGCGAG,-0.181
8,AAACTAGC,-0.0753
9,AAGACGTC,0.0011
10,ATCAAAAA,0.187
11,ACGGTAAT,0.22
12,AAACATTC,0.00265
13,ATCGTAGA,0.188
14,CAGATGGC,-0.188
15,AAAATTTG,0.187
16,CAATGATC,0.115
17,ACCGTGGG,-0.229
18,AACCTGCT,-0.101
19,AATTAATG,-0.0162
20,CAACATAC,0.0518
21,CAATATAA,0.191
22,AGTGGGCC,-0.205

row,Sequence,binding signal [E-score]
1,ATTCTTGG,0.242
2,AAAATGAG,0.0374
3,AACATCTG,0.0873
4,AAAGCTAT,-0.0432
5,AATCAAAG,0.221
6,ACTTTCAT,-0.0675
7,AGTGCAAA,0.101
8,ACTTAGCG,-0.0501
9,ATCACCGC,0.183
10,AATAGACA,0.0391
11,CAGATTTC,0.486
12,ATAGGGAA,0.0269
13,ACTGCGTC,-0.119
14,ACAGAAAG,-0.0348
15,ATGACCTC,-0.159
16,AGGCGAGC,-0.262
17,CACAATTC,0.127
18,ACTATGAT,0.13
19,ACAACAGT,-0.0309
20,AACGAATT,0.141
21,AGTTCAAT,0.0557
22,ACGGGAGT,-0.22

row,Sequence,binding signal [E-score]
1,ACAGCGAT,0.0505
2,ATTGACTG,-0.042
3,AACTGAAA,0.121
4,ATCTGTTA,0.295
5,ACTACAAC,0.012
6,AAGTTATC,-0.045
7,CAAACCTG,-0.102
8,ATGTGGTA,0.0306
9,ACTTAATG,0.0355
10,ACACCTAG,-0.08
11,CACTGGTA,-0.0868
12,CAAACGAA,-0.0108
13,ACGTACAG,-0.129
14,CACCCTGC,-0.183
15,ACAGGCAT,0.0211
16,AATCCCCA,0.346
17,AATTTGCG,0.223
18,AAGAGTTG,-0.207
19,ATCAATCG,0.0438
20,ATACAGCG,0.00892
21,AATAATTC,0.0514
22,ACAATCTG,0.404

row,Sequence,binding signal [E-score]
1,ACCACGAG,-0.0573
2,ATATTGTA,0.232
3,AGCTCTTC,-0.282
4,ACGCTTCT,-0.114
5,AAACACCG,0.0902
6,AAGGGGAA,0.0657
7,AAGGGCCG,-0.288
8,AGCGGAGA,0.159
9,AATCGTCT,0.277
10,AGGAGGGC,-0.349
11,AACGGGTG,-0.241
12,ATCCGCAA,0.325
13,AACCATTC,-0.0686
14,ATGTAAGC,-0.064
15,ACTTAGGG,-0.0726
16,CAACCACC,-0.207
17,AAGTGGAC,-0.0428
18,AAACATCA,0.0318
19,ACATGCAG,-0.0664
20,AAAGTCTT,-0.0353
21,ACCGCCAC,-0.183
22,CAAACGCG,-0.0254

row,Sequence,binding signal [E-score]
1,CACATGTG,-0.116
2,ACCAACTC,-0.138
3,AGTTTCGC,0.0258
4,ACCCCCTA,-0.213
5,ATCCTGCC,0.216
6,AGAACGCA,-0.203
7,AGTGTTAA,-0.0985
8,ATGAATTA,0.062
9,AAGACTTA,-0.0151
10,AAAGTGCG,-0.143
11,AGAGTTAA,-0.0689
12,CACGGATA,0.231
13,AGAATTCC,0.144
14,AGCCAACA,-0.0566
15,AACTCAGC,-0.114
16,AATAATCC,0.307
17,AGTAGACC,-0.103
18,AGGGCCCG,-0.319
19,ACATACAC,0.133
20,AGTGCACC,-0.266
21,AGGTAGAA,0.145
22,CAATAGGC,-0.25
